The list shows a part of the results.
B1: chr5:135912371:135912372:-_ENSMUSG00000039959_ENSMUST00000060311|mus_mus|FALSE|FALSE (ssRNA)
RNA: GGGAGUUCUACAGUCCGACGAUCCAUGUUGUCCAGCUGCCCUGUCAGUCCACUGAUCUCUCUGUACAGGCGUUCAAUCAAGUGGUCCUUCUCGUCCUUGUUCACGCCAUUUUGAUUGUUGAAAUUGAAAGGGUCGCUGCUCAACAACAGAGGAUUGAGCAUCA
B2: 63592093_63593034_1452_3pUTR_ENSMUSG00000025964_ENSMUST00000114107|mouse|control|control (ssRNA)
RNA: GGGAGUUCUACAGUCCGACGAUCCCAAAGUAACUCAGACUGCUUCUCUUAUAAUGGAAUGUCACGCGCGAGAUGAGGUGGACCGCGUCAGCGUGCUGUUUGAUUCGCUGCCGGUACUUGGAGAAGUCAUGUAGCAUCUGCACGCAACAGAGGAUUGAGCAUCA
B3: chr6:136509389:136509390:+_ENSMUSG00000030213_ENSMUST00000032335|mus_mus|motif|central (ssRNA)
RNA: GGGAGUUCUACAGUCCGACGAUCGACAUUACUGUUCACUUUAUUUCCCUCAUCACAGGAGUCUUUACUUUGAAUUUGGUCGGAGUGUUCGUCGUCUUCACUCUUGCCUGGACAAUCAUCACUGUUAUUGCUACUCGGCUCUGUCAACAGAGGAUUGAGCAUCA
B4: chr4:109959894:109959895:-_ENSMUSG00000028546_ENSMUST00000106598|mus_hu|FALSE|FALSE (ssRNA)
RNA: GGGAGUUCUACAGUCCGACGAUCCUUCGACUCUUCUGUUAAAAUUUGCAAAGAUUUCAGAAUAUAUAUUUAAAAUGACUACUAUUGUUAUAUAUAAUUAAAGAUCCACAAAACACAGUGUGGAUGAUUGUAAAGCAAAUCAAUCAACAGAGGAUUGAGCAUCA
B5: 48543412_48543532_713_CDS_ENSG00000177981_ENST00000317697|human|control|control (ssRNA)
RNA: GGGAGUUCUACAGUCCGACGAUCUGUUCCAAGUCCCCUGACUAGCAGAGCCACCAGGCGGGAGAUGGGUGUCUGGCCUAUUAGGUUGAUGACUCUGACCUCUGCGCCAUAAUCCAGAAGGAUGCUGACACUCUCAAGAUUUCCCAACAGAGGAUUGAGCAUCA
B6: chr3:179287964:179287965:+_ENSG00000136518_ENST00000429709|hu_hu|hu_hu_hu_mus_True|28_58 (ssRNA)
RNA: GGGAGUUCUACAGUCCGACGAUCCUUGAGUGGUGAGAUGGCCUCCAUGUUCUCCCUGGGCACGCGGAGGGCAUUGGUAUCUAUGUAGUAGGUGGGCCCGCCCUGCUUGCCUUUAUCACCAUCAAUCUCCAUCAUUGUACUUCCCAACAGAGGAUUGAGCAUCA
B7: chr11:62363965:62363966:-_ENSG00000149480_ENST00000278823|perfect_dup|FALSE|FALSE (ssRNA)
RNA: GGGAGUUCUACAGUCCGACGAUCCAAUCUUUUCUGCUGAAUAUACCGGUCUGUGGUUUUCCACAUGUAAUAAAACUGGACUAUGCUUGCAAGUGACUUCCAGGGUAGAAAGUCCUGGCGGAUAUCAUUGAAAUCCUUCCCGUACAACAGAGGAUUGAGCAUCA
B8: chr7:23239867:23239868:+_ENSG00000136243_ENST00000258742|hu_mus|motif|central (ssRNA)
RNA: GGGAGUUCUACAGUCCGACGAUCUCCAAAUACUGAAGUGCUUCCGGAAGGAGGAGUGGCAAGUCCAGGGCUUGUUUUAAAACGGAAGUUCUGAACAGUACUGCUGCUGCUGUUAUUCACUGGGAAGCCUGGUGACCCAAACGACAACAGAGGAUUGAGCAUCA
B9: chr9:56909451:56909452:+_ENSMUSG00000032290_ENSMUST00000034832|mus_mus|FALSE|FALSE (ssRNA)
RNA: GGGAGUUCUACAGUCCGACGAUCCACAUACGUACACACACACACACACAGAAUGACAGAAAAGACUGGAAUACACGCCCUAUGUAUAAACGUGCUUGGCACUCGGGACAUUCUCUAGAAUAUGUAACUUGGUCAAGCUUUCUGCAACAGAGGAUUGAGCAUCA
B10: 32897347_32897467_5049_3pUTR_ENSMUSG00000013663_ENSMUST00000013807|mouse|control|control (ssRNA)
RNA: GGGAGUUCUACAGUCCGACGAUCUUCCGUCUGCAUGCACGACACAUUAACAGUAUUUAAAGGUAAACGAGGCACUUUGUGGCAACCACAGCCAUCGUUAUGAACAUAUUGCACAAAUUUUCUAAAACUAAACAUGUAACUUGUCAACAGAGGAUUGAGCAUCA
B11: chr11:100577090:100577091:-_ENSMUSG00000019173_ENSMUST00000107364|mus_mus|motif|central (ssRNA)
RNA: GGGAGUUCUACAGUCCGACGAUCAAAGGGUGACUGCUCCAAGCCCUGUCCCCACGGAUGAGGAGCACAGGAGCAUGGCGGCGGCCAGCAAAGGGCAAGUGGGGGAGCGGGAGAAAGGGACCUGGGAAGAGCAGAAGAUCAUAUCAACAGAGGAUUGAGCAUCA
B12: 123908528_123911063_1935_CDS_ENSG00000119397_ENST00000373850|human|control|control (ssRNA)
RNA: GGGAGUUCUACAGUCCGACGAUCACUGCCUUCCUUCCCAUCCUGCUGCCCAGGGCGUGGUUUUCUAACAGGAGUUGAGGCUGAGUACUUAAGGCCAACACCAGAGUCCUUGGUGGCCUGGGAACUAUGGCUGGAAACUUUUGACAACAGAGGAUUGAGCAUCA
B13: chr7:140404665:140404666:+_ENSG00000090266_ENST00000247866|hu_hu|hu_hu_hu_mus_False|58_78 (ssRNA)
RNA: GGGAGUUCUACAGUCCGACGAUCUGCUCCUACUCGUCCAGAGAGUUUACAGUGUCAGUCUUCAUCAUCAGGAGGGAUACCUAAUUCUUCAUCUGUCCACUGUGAAGGAUCUGGAUAUGAAAAGUGACCCAGCACAGCAUCCGACAACAGAGGAUUGAGCAUCA
B14: chr9:53391610:53391611:-_ENSMUSG00000032047_ENSMUST00000034547|mus_mus|FALSE|FALSE (ssRNA)
RNA: GGGAGUUCUACAGUCCGACGAUCCAGAGAAACAGCUCCUCCGUGGAUAUUUACUUUUUGGGGGUCAAUCUCCAGCAUUUUAAUGUUGGCUAGCACAACCACACUGAAUGCUUCAUUUACUUCCCACAUGGCAAUGUCUUCUUUCAACAGAGGAUUGAGCAUCA
B15: chr2:130910683:130910684:-_ENSG00000136699_ENST00000351288|hu_mus|FALSE|FALSE (ssRNA)
RNA: GGGAGUUCUACAGUCCGACGAUCGGAGCACAGAGCUGCCAUCUGGCCUGCAAAUCUACGGUUGAUGGCAGAGGACAGCCGGAAGAGUGCACGGACCAGACUGGUGAUUUCGUAGCUCCGGAUGGGCUGCAGCUCUAAGUCUCCCAACAGAGGAUUGAGCAUCA
B16: chr12:110729878:110729879:+_ENSG00000174437_ENST00000539276|hu_hu|FALSE|FALSE (ssRNA)
RNA: GGGAGUUCUACAGUCCGACGAUCUUCGAUGGCAUUUUCAGCAUUUCUUUCCUGCCAUACACCCACAAUUGCAUUGGCUACUAAUAUGAGUAAAAUUACAAAAGGUUCUACAAAGGCUGUAAUUGUUUCUUCACCUUCUUCAAACAACAGAGGAUUGAGCAUCA
B17: chr2:42509997:42509998:+_ENSG00000143924_ENST00000318522|hu_mus|hu_hu_hu_mus_True|88_108 (ssRNA)
RNA: GGGAGUUCUACAGUCCGACGAUCUCGCUGAGUUCUCUCCUCAUAAUUAAAUAGUACUACCACUGAGGCGAUAAAAUAAACUAUCUCCCCUGUGGGAAGCAGGUAUACAUUCGCUCUACAGUCCUUUCCUCGAUAACCGUAUACCAACAGAGGAUUGAGCAUCA
B18: chr11:58768410:58768411:+_ENSMUSG00000078851_ENSMUST00000108817|mus_hu|FALSE|FALSE (ssRNA)
RNA: GGGAGUUCUACAGUCCGACGAUCCUUCUUGUUGUCGCGCGCCGCGUUGCCGGCAAGCUCCAGGAUCUCGGCAGUCAAGUACUCGAGCACCGCGGCCAGAUAGACCGGGGCGCCGGCGCCCACGCGCUCCGAAUAGUUGCCCUUCAACAGAGGAUUGAGCAUCA
B19: chr7:56126341:56126342:+_ENSG00000146731_ENST00000540286|hu_mus|hu_hu_hu_mus_True|78_88 (ssRNA)
RNA: GGGAGUUCUACAGUCCGACGAUCCAUGUUUCUCCUCUUGGCUCUGCGCAGAGCAACUAUGCCUUCUUUCGCAAGGGCAUCUAAGGAAAAGGGGUCAAUCCCCUUUUGAUUAAUAACGACAAAUCCUUUAUCUGAGUCACCACACAACAGAGGAUUGAGCAUCA
B20: chr2:48026839:48026840:+_ENSG00000116062_ENST00000540021|hu_hu|hu_hu_hu_mus_False|88_108 (ssRNA)
RNA: GGGAGUUCUACAGUCCGACGAUCAUAGUGUGCCACUAGCGUCCUAAAUCUCGAACAGUGGCGGUCAUCCGAAAACUGGCCGAUGAAAAACUUGCCCAGUGAAGUGUCCACAAAGCAAACACCAUACACACGAGUGUGACCAGACAACAGAGGAUUGAGCAUCA
B21: chr2:35971668:35971669:-_ENSMUSG00000026889_ENSMUST00000028251|mus_mus|motif|central (ssRNA)
RNA: GGGAGUUCUACAGUCCGACGAUCAAGAAUUGGUACAAAUCAUAGACAUUGUUUAAAUACAAAUAAAUAGUUCUAGAUUCGGAAGAAACAACUCUAGAUAAUCCUAAGUAUUCUCUAGGUUCCUAUUAAAAAUAGAAGGCUAUUCAACAGAGGAUUGAGCAUCA
B22: chr12:48538843:48538844:+_ENSG00000152556_ENST00000359794|hu_hu|motif|central (ssRNA)
RNA: GGGAGUUCUACAGUCCGACGAUCCUCUUUGAUUUUCCCAGACAUCCAGUUCAUAGCCUUGGCGCCCAUCUUAGUGGCAAAAUUCCGGUCAAAUGGGGUUGGGCUCCCACCCUGCUGCAUGUGACCAAGCACAUUCUUCCUGCUCAACAGAGGAUUGAGCAUCA

These binders were tested against T1, UNK ZnF1-3 (human, UniProt Q9C0B0 31-174) (assay: nsRBNS (natural sequence RNA bind-n-seq); RBNS binding buffer (assumed for nsRBNS): 25 mM Tris pH 7.5, 150 mM KCl, 3 mM MgCl2, 0.01% Triton X-100, 500 ug/ml BSA, 20 U/ml SUPERase-In, 4 C; UNK is unkempt and MSI1 is Musashi-1; names of the RNAs are library labels; protein concentration not given here; high values mean tight binding).
T1 sequence: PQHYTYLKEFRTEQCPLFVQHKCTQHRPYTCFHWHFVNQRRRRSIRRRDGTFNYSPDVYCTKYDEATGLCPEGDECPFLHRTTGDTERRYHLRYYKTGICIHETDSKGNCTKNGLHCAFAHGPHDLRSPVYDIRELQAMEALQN

Row | Binder | binding signal [enrichment R]
1 | B1 | 0.71
2 | B2 | 0.74
3 | B3 | 0.317
4 | B4 | 2.6
5 | B5 | 0.859
6 | B6 | 0.752
7 | B7 | 1.14
8 | B8 | 2.2
9 | B9 | 1.23
10 | B10 | 1.15
11 | B11 | 1.27
12 | B12 | 1.45
13 | B13 | 1.08
14 | B14 | 0.74
15 | B15 | 0.73
16 | B16 | 1.04
17 | B17 | 1.38
18 | B18 | 0.533
19 | B19 | 0.647
20 | B20 | 1.09
21 | B21 | 1.17
22 | B22 | 0.739

From paper PMC12136788
